Reference: PubChem BioAssay AID504832 (National Center for Advancing Translational Sciences (NCATS), 2011)
The whole screen tested about 310,000 compounds, of which about 18,000 (5.8%) were called active. Inconclusive means that the source gave no clear call. Such entries were picked first, then a sample of the others. Calls come from the whole dose curve; as a rule, active = well fitted inhibition curve with a large enough effect; inconclusive = small, poorly fitted or top-dose-only effect, or another doubt; inactive = no such curve, though single readings can be large or run the other way. No potency is given beside an inconclusive call; the fits are too rough.

Assay: Primary qHTS for delayed death inhibitors of the malarial parasite plastid, 48 hour incubation
Conditions: P. falciparum luciferase growth in erythrocytes; series mostly up to 28.7 µM
Method in brief: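 Luciferase-expressing P. falciparum in infected erythrocytes (2% hematocrit, 0.1% parasitemia final) in RPMI 1640/0.5% Albumax were exposed to compound for 48 hours at 37 C, 5% CO2; growth read as luminescence.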
Potency is the fitted concentration of half-maximal effect; tags give direction and shape of the fitted curve.

Row | Compound | Potency
1 | COc1ccc(NC(=O)C(=O)NCC(c2ccco2)N2CCc3ccccc3C2)cc1OC (stereo not drawn) | active: 11.7 µM
2 | CCCCC(=O)NC(c1ccc(C(C)C)cc1)c1ccc2cccnc2c1O (stereo not drawn) | active: 1.65 µM
3 | CCNC(=S)N1CCN(c2nc(CC)nc3sc4c(c23)CCCC4)CC1 | inconclusive [inhibitor, single point]
4 | O=C(CCl)NCCN1C(=O)S/C(=C\c2cccnc2)C1=O | inconclusive [inhibitor, partial curve, poor fit]
5 | Cc1ccc2cc(CCNC(=O)c3ccc(S(=O)(=O)N4CCCCC4)cc3)c(=O)[nH]c2c1 | inconclusive [inhibitor, single point]
6 | C/C(CCc1ccccc1)=N\NC(=O)CCc1ccccc1 | inactive
7 | O=C(NC1CCSc2ccccc21)c1cccc(Cl)c1 (stereo not drawn) | inconclusive [inhibitor, partial curve]
8 | CN(CC(=O)Nc1ccc(Cl)c(C(F)(F)F)c1)C(=O)Cc1ccsc1 | inconclusive [inhibitor, single point]
9 | CCCc1ccc(-c2cc(C(=O)NC3=NCCS3)c3ccccc3n2)cc1 | inactive
10 | O=S(=O)(c1ccc(-c2csc(-c3cccnc3)n2)cc1)N1CCCC1 | inconclusive [inhibitor, single point]
11 | CCOC(=O)C1=C(C)NC(=O)NC1c1ccc(N2CCC(c3ccccc3)=N2)cc1 (stereo not drawn) | inconclusive [inhibitor, single point]
12 | COc1ccc(Br)cc1S(=O)(=O)Nc1ncn[nH]1 | inactive
13 | CCOc1[nH]n(-c2ccccc2)c(=O)c1C=NCC(=O)OC | inconclusive [inhibitor, partial curve, poor fit]
14 | CN(C[C@H](Cc1ccccc1)N(C[C@H](Cc1ccccc1)N(CCc1cc(C(F)(F)F)cc(C(F)(F)F)c1)N=O)N=O)N=O | inconclusive [inhibitor, full curve, poor fit]
15 | CC(C)Nc1ncnc2c1cnn2-c1ccc(Cl)cc1 | inactive
16 | O=C(Nc1ccnn1C1CCN(Cc2cccc(OCCO)c2)CC1)c1cccc(F)c1 | inconclusive [inhibitor, single point]
17 | CC1(C)CC(C)(O)N(Cc2ccccc2)C(=S)N1 (stereo not drawn) | inactive
18 | Clc1ccc(-c2nc(NCCCN3CCOCC3)c3ccccc3n2)cc1 | inconclusive [inhibitor, partial curve, poor fit]
19 | CCCCn1c(=N)n(CC(O)COc2ccc(C)cc2)c2ccccc21 (stereo not drawn) | active: 2.33 µM
20 | COC(=O)C1=C(c2ccc3ccccc3c2)C[C@@H]2CC[C@H]1N2C(=O)N1CCC(O)CC1 | inconclusive [inhibitor, single point]
21 | COc1ccc(OC)c(/C=C/c2ccc3cccc(O)c3n2)c1 | active: 4.15 µM
22 | O=C(N/N=C/c1ccc(O)c(O)c1)N/N=C/c1ccc(O)c(O)c1 | inconclusive [inhibitor, partial curve, poor fit]
23 | Cc1ccc2oc(C(=O)N(C)Cc3cnccn3)c(C)c2c1 | active: 2.94 µM

Row | Compound | Potency
24 | O=S(=O)(c1ccc(Cl)cc1)N1CCCCC1c1cccnc1 (stereo not drawn) | inconclusive [inhibitor, single point]
25 | COc1cccc(NC(=O)C(Cc2ccccc2)n2cccc2)c1 (stereo not drawn) | inconclusive [inhibitor, single point]
26 | Cc1ccc(C(C[N+](=O)[O-])c2c(N)n(C)c(=O)n(C)c2=O)cc1 (stereo not drawn) | inconclusive [inhibitor, single point]
27 | CCN1CCN(C(=O)c2cc3cc4cc(OC)ccc4nc3s2)CC1 | inactive
28 | O=C(CC1C(=O)NCCN1CC(c1ccccc1)c1ccccc1)NCCc1cn[nH]c1 (stereo not drawn) | inconclusive [inhibitor, full curve]
29 | CCOC(=O)C1CCCN(Cc2nc(N)nc(Nc3ccc(Cl)cc3)n2)C1 (stereo not drawn) | inconclusive [inhibitor, partial curve]
30 | Cc1c(C(=O)Nc2c(N)nc(SCC(=O)NCC3CCCO3)[nH]c2=O)cccc1[N+](=O)[O-] (stereo not drawn) | inactive
31 | Fc1ccc(CSc2nnc(-c3ccncc3)o2)cc1 | inactive
32 | CCCn1c(SCC(=O)Nc2ccc(S(=O)(=O)N(C)C)cc2)n[nH]c1=O | inconclusive [inhibitor, single point]
33 | COc1cc(C(=O)NCc2nnc(SCC(=O)NC3CCCCC3)o2)cc(OC)c1OC | inactive
34 | C/C(CC(=O)Nc1cccc(Cl)c1Cl)=N\NC(=O)c1ccccc1N | inactive
35 | Cc1ccccc1-n1ncc2c1CC(C)(C)CC2NC(=O)CCn1cncn1 (stereo not drawn) | inconclusive [inhibitor, single point]
36 | CCO[C@@H]1OC(C(=O)N2CCOCC2)=C[C@H](C2CCCCC2)[C@H]1CCCO | inactive
37 | Clc1ccc(OCc2nnc(SCc3nc4ccccc4[nH]3)n2Cc2ccco2)cc1 | inconclusive [inhibitor, partial curve, poor fit]
38 | CCOC(=O)c1cccc(NC(=O)CCc2nnc3ccc(N4CCCCC4)nn23)c1 | inconclusive [inhibitor, single point]
39 | CC(C)C[C@H]1C(=O)N2CCCC2[C@]2(O)O[C@](NC(=O)[C@@H]3C=C4c5cccc6[nH]cc(c56)CC4N(C)C3)(C(C)C)C(=O)N12 (stereo partly drawn) | active: 2.62 µM
40 | Cc1ccc([N+](=O)[O-])cc1S(=O)(=O)Nc1ccc(C(=O)NCc2ccccn2)cc1 | inconclusive [inhibitor, single point]
41 | C=CCn1c(Cc2ccccc2)nc2c(cnn2-c2ccccc2)c1=O | inconclusive [inhibitor, partial curve, poor fit]
42 | COc1cc(-c2nnc(SCc3c(F)cccc3Cl)o2)cc(OC)c1OC | inconclusive [inhibitor, single point]
43 | CCCc1cc(=O)n2nc(N3CCC(C(=O)NCc4ccco4)CC3)sc2n1 | inactive
44 | Nc1c(C(=O)CSc2n[nH]c(-c3ccccc3Br)n2)c(=O)[nH]c(=O)n1C1CC1 | inconclusive [inhibitor, partial curve, poor fit]
45 | Cc1noc(C)c1COc1ccc(C(=O)Nc2ccccc2)cc1 | inconclusive [inhibitor, partial curve, poor fit]
46 | Cc1cc(NC(=O)C2CC(=O)N(c3cccc(Cl)c3)C2)no1 (stereo not drawn) | inactive

Row | Compound | Potency
47 | Nc1nonc1-n1nnc(C(=O)N/N=C/c2ccncc2)c1-c1ccccc1 | inactive
48 | CCCCn1nc(CC(=O)O)c2ccccc2c1=O | inactive
49 | Nc1ccc(S(=O)(=O)Nc2nccc(/C=C/c3ccc(Cl)cc3Cl)n2)cc1 | inconclusive [inhibitor, full curve, poor fit]
50 | N#Cc1ccccc1OCC(=O)Nc1ccc(N2CCOCC2)cc1N1CCOCC1 | inconclusive [inhibitor, single point]
51 | NNC(=O)c1ccc(S(=O)(=O)N2CCc3ccccc32)cc1 | active: 11.7 µM
52 | COc1ccccc1NS(=O)(=O)c1ccc2oc(SC(C)C(=O)N3CCNC3=O)nc2c1 (stereo not drawn) | inconclusive [inhibitor, single point]
53 | CCC(=O)N1CCc2cc(S(=O)(=O)CCC(=O)N(C)c3ccc(OC)cc3OC)ccc21 | inconclusive [inhibitor, single point]
54 | CNc1nc(-c2ccccc2)cc(C(F)(F)F)c1C#N | inconclusive [inhibitor, full curve, poor fit]
55 | COc1ccc(OC)c(S(=O)(=O)CC(=O)c2cc3ccc(OC)cc3oc2=O)c1 | inconclusive [inhibitor, partial curve]
56 | O=S(=O)(Nc1ccccc1N1CCCCC1)c1ccc(F)cc1 | inconclusive [inhibitor, partial curve, poor fit]
57 | COc1ccc(OC)c(Nc2nc(N)nc(CSc3nnc(-c4ccncc4)o3)n2)c1 | inactive
58 | C=C1CC[C@H](O)C/C1=C/C=C1\CCC[C@]2(C)[C@@H]([C@H](C)/C=C/[C@H](C)C(C)C)CC[C@@H]12 | inconclusive [inhibitor, partial curve, poor fit]
59 | CNCCCOc1ccc(Cl)cc1C(C)(C)C | inconclusive [inhibitor, partial curve]
60 | CNC(=O)c1ccsc1NC(=O)c1ccc2c(c1)CCCC2 | inactive
61 | O=C(Nc1cccc(F)c1)c1cc(S(=O)(=O)N2CCOCC2)ccc1N1CCCC1 | inconclusive [inhibitor, single point]
62 | CCC(CC)NC(=O)/C=C/c1ccccc1Cl | inactive
63 | COc1ccc(-n2c(Cc3cccn3C)nnc2SCC(=O)Nc2ccc(F)cc2)cc1 | inconclusive [inhibitor, single point]
64 | CC(C)(C)C(=O)N(CCN(C(=O)C(C)(C)C)c1ccccc1)c1ccccc1 | inconclusive [inhibitor, partial curve, poor fit]
65 | O=C(CCN1CCOCC1)NNC(=S)NC(=O)c1ccc(Br)cc1 | inconclusive [inhibitor, partial curve, poor fit]
66 | CCC1(C(=O)OC)NC(c2ccco2)C2C(=O)N(c3ccc(F)cc3)C(=O)C21 (stereo not drawn) | inactive
67 | O=C(Nc1ccc(N2CCN(C(=O)c3ccco3)CC2)cc1)c1ccccc1Br | inconclusive [inhibitor, partial curve]
68 | CCOC(=O)N1CCN(CC(O)COc2c(C)cc(C)cc2C)CC1 (stereo not drawn) | inactive
